# Reference: the RNAGym collection of RNA variant scans (doi:10.7554/elife.90254)
# Read counts are not given, so values of variants with three or more changes are uncertain.
# B1: LINE1-full (parent)
# chain: UACGUAGGUGGUUUUCCCCUGAUAGUGCUAAGGGGGCCUGGAAGUUUGGACUGGGCAGAGCUCAACACAGCGUGGCAAAGUGGCUGUGGCUAGACUGCCUCUCUGGAUUCCUCGUCACUCAGCAGGGCAUCUCUGAGAGAAAUGCC
# Variants of: B1
# Assay: self-cleavage, relative activity (ratio to wild type); higher = more cleavage; in vitro, sequencing; the parent is a self-cleaving ribozyme
row,Variant,self-cleavage
1,UACGUAGGUGGUUCUCCCCUGAUAGUGCUAAGGGGGCCUGGAAGUUUGGACUGGGCAGAGCUUAACACUGCGUGGCAAAGUGGCUGUGGCUAGACUGCCUCUCUGGAUUCCUCGUCACCCAGCAGGGCAUCUCUGAGAGAAAUGCC,0.05
2,UACGUAGGUGGUUCUCCCCUGAUAGUGCUAAGGGGGCCUGGAAGUUUGGACUGGGCAGAGCUCAACACAGCGUGGCAAAGUGGCUGUGGCUAGACUGCCUCUCUGGAUUCCUCGUCACUCAGUAGGGCAUCUCUGAGUGAAAUGCC,2.21
3,UACGUAGGUGGUUCUCCCCUGAUAGUGCUAAGGGUGCCCGGAAGUAUGGACUGGGCAGAGCUCAACACAGCGUGGCAAAGUGGCUGUGGCUAGACUGCCUCUCUGGAUUCCUCGUCACUCAGCAGGGCAUCCCUGAGAGAAAUGCC,0.63
4,UACGUAGGUGGUUCUCCCCUGAUAGUGCUAAAGGGGCCUGGAAGUUUGGACUGGGCAGAGCUCAACACAGCGUGGCAAAGUGGCUGUGGCUAGACUGCCUCUCUGGAUUCCUCGUCACUCAGCAGGGCAUCUCCGAGAGAAAUGCC,1.56
5,UACGUAGGUGGUUCUCCCCUGAUAGUGCUAAGGGGACCUGGAAGUUUGGACUGGGCAGAGCUCAACACAGCGUGGCACACUGGCUGUGGCUAGCCUGCCUCUCCGGAUUCCUCGUCACUCAGCAGGGCAUCUCUGAGAGAAAUGCC,0.09
6,UACGUAGGUGGUUCUCCCCUGAUAGUGCUAAGGGAGCCUGGAAGUUUGGACUGGGCAGAGCUCAACACAGCGUGGCAAAGUGGCUGUGGCUAGACUGCCUCUCUGGAUUCAUCGCCACUCAGCAGGGCAUCUCUGAGAGAAAUGCC,1.62
7,UACGUAGGUGGUUCUCCCCUGAUAGUGCUAAGGGGGCCUGGAAGUUUGGACUGGGCAGAGCUCAACACAGAGUGGCAGAGUGGCUGUGGCUAGACUGACUCUCUGGAUUCCUCGUCACUCAGCAGGGCAUCUCUGAGAGAAAUGCC,0.03
8,UACGUAGGUGGUUCUCCCCUGAUAGUGUUAAGGGGGCCUGGAAGUUUGGACUGGGCAGAGCUCAACACAGCGUGGCAAAGUGGCUGUGGCUAGACUGCCUCUCAGGAUUCCCCGUCACUCAGCAGGGCACCUCUGAGAGAAAUGCC,1.15
9,UACGUAGGUGGUUCUCCCCUGAUAGUGCUAAGGGGGCCUGGAAGUUUGGACUGGGCAGAGCUCAACACAGCGUGGCAAAGUGGCUGUGGCUAGACUGCCUCUCUGGAUUCCUUGUCACUCAGCAGGGCAUCUCUGAGAGAAUUGCC,1.04
10,UACGUAGGUGGUUCUCCCCUGAUAGUGCUAAGGAGGCCUGGAAGUUUGGACUGGGCUGAGCUCAACACAGCGUGGCAAGGUGGCUGUGGCUAGACUGCCUCUCUGGAUUCCUCGUCACUCAGCAGGGCUUCUCUGAGAGAAAUGCC,0.04
11,UACGUAGGUGGUUCUCCCCUGAUAGUGCUAAGGGGGCCUGGAAGUUUGGACUGGGCAGAGCUCAACACAGCGUGGCAAAGUGGCUGUGGCUAGAUUGCCUCUCUGGAUUCCUCGUCGCUCAGCAGGGCAUCUCUGAGAGAAAUGCC,0.13
12,UACGUAGGUGGUUCUCCCCUGAUAGUGCUAAAGGGGCCUGGAAGUUUGGACUGGGCAGAGCUCAACACAGCGUGGCAAAGUGGCUGUGGCUAGACUGCCUCUCUGGAUUCCUCGUCACUCAGCAGGGCACCUCUGAGAAAAAUGCC,1.37
13,UACGUAGGUGGUUCUCCCCUGAUAGUGCUAAGGGGGCAUGGAAGUUUGGACUGGGCAGAGCUCAACACAGCGUGGUAAAGUGGCUGUGGCUAGACUGCCUCUCUGGAUUCCUCGUCACUCGGCAGGGCAUCUCUGCGAGAAAUGCC,2.14
14,UACGUAGGUGGUUCUCCCCUGAUAUUGCUAAGGGGGCCUGGAAGUUUGGACUGGGCAGAGCUCAACACAGCGUGGCAAAGUGGCUGUGGCUAGACUGCCUCUCUGGACUCCUCGUUACUCAGCAGGGCAUCUCAGAGAGAAAUGCC,1.2
15,UACGUAGGUGGUUCUCCCCUGAUAGUGCUAAAGGGGCCUGGAAGUCUGGACUGGGCAGAGCUCAACACAGCGUGGCAAGGUGGCUGUGGCUAGACUGCCUCUCUGGAUUCCUAGUCACUCAGCAGGGCAUCUCUGAGAGAAAUGCC,2.19
16,UACGUAGGUGGUUCUCCCCUGAUAGUGCUAAGGGGGCCUGGAAGUUUGGACUGGGCAGAGCUCAACACAGCGUGGCAAAGUGGCUGUGGCUAGACUGCUUCUCUGGAUUCCCCGUCACUCAGCAGGGCAUCUCUGAGAGAAAUGCC,0.55
17,UACGUAGGUGGUUCUCCCCUGAUAGUGCUAAGGGGGCCUGGAAGUUUGGACUGGGCAGAGCUCAACACAGCGUGGCAAAGUGGUUGUGGCUAGACUGCCUCUCUGGAUUCCCCGUCACUCAGCAGGGCAUCUCUGAGAGAAAUGCC,0.1
18,UACGUAGGUGGUUCUCCCCUGAUAGUGCUAAGGGGGCUUGGAAGUUUGGACUGGGCAGAGCUCAACACAGCGUGGCAAAGUGGCUGUGGCUAGACUGCCUCUCUGGAUUCCUCGUCACUCAGCAGGGCAUCUCUGAGAGGAAUGCC,1.09
19,UACGUAGGUGGUUCUCCCCUGAUAGUGCUAAGGGGGCCUGGAAGUUUGGAUUGGGCAGAGCUCAACACAGCGUGGCAAAGUGGCUGUGGCUAGACUGCCUCUCUGGAUUCCUCGUCACUCAGCAGGUCAUCUCUGAGAGAAAUGCC,2.03
20,UACGUAGGUGGUUCUCCCCUGAUAGUGCUAAGGGGGCCUGGAAGUUUGGACUGGGCAGAGUUCAACGCAGCGUGGCAAAGUGGCUAUGGCUAGACUGCCUCUCUGGAUUCCUCGUCACUCAGCAGGGCAUCUCUGAGAGAAAUGCC,0.02

row,Variant,self-cleavage
1,UACGUAGGUGGUUCUCCCCUGAUAGUGCUAAGGGGGCCUGGAAGUUUGGACUGGGCAGAGCUCAACACAGCGUGGAAAAGUGGCUGUGGCCAGACUGCCUCUCUGGAUUCCUCAUCACUCAGCAGGGCAUCUCUGAGAGAAAUGCC,0.6
2,UACGUAGGUGGUUCUCCCCUGAUAGUGCUAAGGUGGCCUGGAAGUUUGGACUGGGCAGAGCUCAACACAGCGUGGCAAAGUGGCUGUGGCUAGACUGCCUCUCUGGAUUCCUCGUCACUCAGCAGGGCAUCUCUGAGGGAAAUGCC,1.61
3,UACGUAGGUGGUUCUCCCCUGAUAGUGCUAAGGGGGCCUGGAAGUUUGGACUCGGCAGAGCUCAACACAGCGUGGCAAAGUGGCUGUGGCUAGACUGCCUCUCUGGAUUCCUCGACACUCAGCAGGGCAUCUCUGAGAGAAAUGCC,1.42
4,UACGUAGGUGGUUCUCCCCUGAUAGUGCUAAGGGGGCCUGGAAGUUUGGACUGGGCAGAGCUCAACACAGCGUGGCAAAGUGGCUGUGGCUAGAUUGCCUCUCUGGAUUCCUCGUCACUCAGCAGGGCAUCUCUGAGAGGAAUGCC,0.23
5,UACGUAGGUGGUUCUCCCCUGAUAGUGCUAAGGGGGACUGGAAGUUUGGACUGGGCGGAGCUCAACACAGCGUGGCAAAGUGGCUGUGGCUUGACUGCCUCUCUGGAUUCCCCGUCACUCAGCAGGGCAUCUCUGAGAGAAAUGCC,0.43
6,UACGUAGGUGGUUCUCCCCUGAUAGUGUUAAGGGGGCCUGGAAGUUUGGACUGGGCAGAGCUCAACGCAGCGUGGCAAAGUGGCUGUGGCUAGACUGCCUCUCUGGAUUCCUCGCCACUCAGCAGGGCAUCUCUGAGAGAAAUGCC,0.2
7,UACGUAGGUGGUUCUCCCCUGAUAGUGCUAAGGGGGCCUGGAAGUUUGGACUGGGCAGAGCUCAACACAGCGUGGCAAAGUGGCUGUGGCUAGACUGCCUCUCUGGAUUCCUCGUCACUCAGCAGGGCUUCCCUGGGAGAAAUGCC,1.84
8,UACGUAGGUGGUUCUCCCCUGAUAGUGCUAAGGGGGCCUGGAAGUUUGGACUAGGCAGAGCUCAACACAGCGUGGCUAAGUGGCUGUGGCUAGACUGCCUCUCUGGAUCCCUCGCCACUCAGCAGGGCAUCUCUGAGAGAAAUGCC,1.25
9,UACGUAGGUGGUUCUCCCCUGAUAGUGCUAAGGGGGCUUGGAAGUUAGGACUGGGCAGAGCUCAACACGGCGUGGCAAAGUGGCUGUGGCUAGACUGCCUCUCUGGAUUCCUCGUCACUCAGCAGGGCAUCUCUGAGAGAAAUGCC,0.49
10,UACGUAGGUGGUUCUCCCCUGAUAUUGCUAAGGGGGCCUGGAAGUUUGGACUGGGCAGAGCUCAACUCAGCGUGGCAAGGUGGCUGUGGCUAGACUGCCUUUCUGGAUUCCUCGUCACUCAGCAGGGCAUCUCUGAGAGAAAUGCC,0.15
11,UACGUAGGUGGUUCUCCCCUGAUAAUGCUAAGGGGGCCUGGAAGUUUGGACUGGGCAGAGCUCAACACAGCGUGGCAAAGUGGCUAUGGCUAGACUGCCUCUCUGGAUUCCUCGUCGCUCAGCAGGGCAUCUCUGAGAGAAAUGCC,0.07
12,UACGUAGGUGGUUCUCCCCUGAUAGUGCUAAGGGGGCCUGGAAGUUUGGACUGGGCAGAGCUCAACACAGCGUGGCAAAGUGGCUGUGGCUAGACUGCCUCUCUGGAUUCCUCGUCACUCAGCGGGGCAUCUCCGAGAGAAAUGCC,1.31
13,UACGUAGGUGGUUCUCCCCUGAUAGUGCUAAGGGGACCUGGAAGUUUGGACUGGGCAGAGCUCAACACAGCGCGGCAAAGUGGCUGUGGCUAGACUGCCUCUCUGGAUUCCUCGUCACUCAGCAGGGCAUCUCUGAGAGAAAUGCC,1.15
14,UACGUAGGUGGUUCUCCCCUGAUAGUGCUAAGGGGGCCUGGAAGUUUGGACUGGGCAGAGCUCAACACAGCGUGGCAAAGUGGCUGUGGCUAGAUUGCCUCUCUGGAUUCCUCGUCACUCAGCAGGGCACCUCUGAGAGAAAUGCC,0.29
15,UACGUAGGUGGUUCUCCCCUGAUAGUGCUAAGGGGGCCUGGAAGUUUGGACUGGGCAGAGCUCAACACAGCGUGGCAAAGUGGCUGUGGCUAGACUGCCUCUCUGGAUUCCUCGUCACUCAGCAGGGCUUCUCUGAGAGAAGUGCC,1.29
16,UACGUAGGUGGUUCUACCCUGAUAGUGCUAAGGGGGCCAGGAGGUUUGGACUGGGCAGAGCUCAACACAGCUUGGCAAAGUGGCUGUGGCUAGACUGCCCCUCUGGAUUCCUCGUCACUCAGCAGGGCUUCUCUGAGAGAAAUGCC,0.67
17,UACGUAGGUGGUUCUCCCCUGAUAGUGCUAAGGGGGCCUGGAAGUUUGAACUGGGAAGAGCUCAACACAGCGUGGCAAAGUGGCUGUGGCUAGACUGCCUCUCUGGAUUCCUCGUCACUCAGCAGGGCAUCUCUGAGAGAAAUGCC,0.09
18,UACGUAGGUGGUUCUCCCCUGAUAGUGCUAAAGGGGCCUGGAAGUUAGGACUGGGCAGAGCUCAACACGGCGUGGCUAAGUGGCUGUGGCUCGACUGCCUCUCUGGAUUCCUCGUCACUCAGCAGGGCAUCUCUGAGAGAAAUGCC,0.07
19,UACGUAGGUGGUUCUCCCCUGAUAGUGCUAAGGGGGCCUGGAAGUUUGGACUGGGCAGAGCUCAACACAGCGUGGCAAAGUGGCUGUGGCUAGACUGCCUCUCUGGAUUCCUCGUCACUCAGCAGGGGAUCUCCGAGAGAAAUGCC,1.08
